From the supplement of paper PMC4166925
± gives the standard deviation of the averaged measurements. In all, about 33,000 sequences were measured (“E-score (dimensionless, -0.5 to 0.5)”: median about -0.046, highest 2% from about 0.36 on). The list shows a part of the results.

What follows are sequences tested on T1, SpTbr T-box DNA-binding domain (GST fusion) (assay: PBM E-score of 8-mer (E-score (dimensionless, -0.5 to 0.5)); Tbr is Tbrain of the sea star Patiria miniata (Pm) or the sea urchin Strongylocentrotus purpuratus (Sp); higher = stronger binding preference; most listed sequences are background and not binding sites). Details: the construct has about 5 more residues each side.
T1 sequence: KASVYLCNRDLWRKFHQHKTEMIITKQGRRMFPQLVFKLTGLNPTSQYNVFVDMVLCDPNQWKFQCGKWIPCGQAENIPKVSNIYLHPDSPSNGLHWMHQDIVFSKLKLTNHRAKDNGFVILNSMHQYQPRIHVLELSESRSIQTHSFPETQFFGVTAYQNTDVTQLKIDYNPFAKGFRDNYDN
Outline: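 Expression of GST-fused Tbr T-box DNA-binding domains, each holding the full T-box plus roughly five flanking residues, was carried out in BL21 E. coli at 20 °C, with purification by glutathione affinity chromatography. Universal Agilent arrays made double-stranded by primer extension were incubated with the protein at 200 nM in PBS (pH 7.5), then scanned and quantified. All ungapped 8-mers were scored from probe intensities, and each received an enrichment E-score from the Universal PBM Analysis Suite, averaged over duplicate arrays.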

Row | Sequence | PBM E-score of 8-mer
1 | CAAAGGTA | -0.0771 ± 0.04
2 | TGTTCCAA | -0.0252 ± 0.053
3 | CCTCACAC | 0.4723 ± 0.0005
4 | ACTACTGC | -0.122 ± 0.034
5 | CGAGCTCC | -0.188 ± 0.041
6 | GTTCCTAA | -0.143 ± 0.0023
7 | GCATGAGA | -0.139 ± 0.053
8 | CCAACTCA | -0.0818 ± 0.049
9 | ACATTGAC | 0.2 ± 0.0096
10 | AGGGGTGA | 0.214 ± 0.023
11 | CAAACGGG | -0.103 ± 0.021
12 | GAACCGTA | -0.12 ± 0.015
13 | CCGCAGCG | 0.0865 ± 0.012
14 | GCGTAAAC | 0.193 ± 0.0043
15 | CTCGCTGA | 0.0386 ± 0.064
16 | ACTTTGGC | 0.154 ± 0.018
17 | ACTATCGA | 0.0214 ± 0.088
18 | ATAAAACG | -0.0723 ± 0.095
19 | AATCCGAA | -0.176 ± 0.046
20 | GCATTTCA | 0.00434 ± 0.016
21 | GATATGGA | -0.253 ± 0.013
22 | AGGTTCGG | -0.135 ± 0.038
23 | ATACATTA | -0.283 ± 0.054
24 | AGGCGACA | 0.37 ± 0.013
25 | ATCCGTGG | -0.248 ± 0.014

Row | Sequence | PBM E-score of 8-mer
26 | AAGCTGGC | 0.122 ± 0.0081
27 | CAGGGAAA | -0.189 ± 0.037
28 | AATGTCCC | -0.356 ± 0.0083
29 | AGACCGGC | 0.00958 ± 0.059
30 | GTACCCAA | -0.242 ± 0.0096
31 | CACATCTA | 0.314 ± 0.0055
32 | GACTAGTC | -0.123 ± 0.036
33 | AGTATACC | -0.159 ± 0.029
34 | CAGAACCC | -0.17 ± 0.059
35 | CTGCCCTC | -0.012 ± 0.12
36 | GCGACCAC | 0.152 ± 0.045
37 | AGAACCGA | -0.0135 ± 0.058
38 | CAGGTGCG | 0.454 ± 0.01
39 | AGTCGTGC | 0.142 ± 0.015
40 | AGGTCCCC | -0.3155 ± 0.00044
41 | AGTTGCAC | 0.115 ± 0.0096
42 | ATGTTAGC | 0.0874 ± 0.016
43 | ACTCAATC | -0.0092 ± 0.032
44 | TAGTTAGA | -0.195 ± 0.024
45 | ACGTTCGC | 0.251 ± 0.03
46 | AGAACGGC | -0.0791 ± 0.027
47 | CCATGAAC | -0.09459 ± 0.00029
48 | TATGGACA | -0.142 ± 0.03
49 | ACTGGCTC | -0.087 ± 0.038
50 | AATCAACG | -0.0642 ± 0.022

Row | Sequence | PBM E-score of 8-mer
51 | GGTTGTAC | 0.0395 ± 0.061
52 | CAAAAATA | -0.199 ± 0.039
53 | GTCGAAAC | -0.0507 ± 0.013
54 | ATGAACGC | -0.0517 ± 0.018
55 | ATAGCGTC | 0.125 ± 0.0054
56 | GCCACGCC | 0.155 ± 0.0018
57 | CACTTCGA | 0.228 ± 0.029
58 | CTACAGGC | -0.131 ± 0.028
59 | CCAAATCC | -0.113 ± 0.0018
60 | GCGAGGGA | 0.162 ± 0.052
61 | ACATTTCC | -0.055 ± 0.0025
62 | ACATGTTG | 0.173 ± 0.055
63 | GATTCAGC | -0.199 ± 0.004
64 | TCCTATAA | -0.202 ± 0.019
65 | CAATAATG | -0.142 ± 0.02
66 | GAAGACAA | 0.0878 ± 0.016
67 | TGAAGAAA | -0.0361 ± 0.045
68 | GCCTAGAA | -0.103 ± 0.019
69 | CTATCCGA | -0.299 ± 0.087
70 | CCACATCC | -0.0299 ± 0.14
71 | CAGACTGG | -0.33 ± 0.011
72 | AATATAGG | -0.00887 ± 0.12
73 | TCGAACAA | -0.143 ± 0.034
74 | CGTGGGAC | 0.0261 ± 0.0086
75 | CTGGCTCA | 0.118 ± 0.035

Row | Sequence | PBM E-score of 8-mer
76 | ACATCTGG | 0.0231 ± 0.025
77 | GAAGGAGC | -0.156 ± 0.084
78 | CTCCACGA | -0.0217 ± 0.068
79 | GAATTGAC | 0.0994 ± 0.016
80 | ATGCCTTG | -0.179 ± 0.056
81 | CCAGGGCG | -0.0798 ± 0.082
82 | AAAGAGCG | -0.0683 ± 0.0027
83 | AACAAGCC | 0.00439 ± 0.043
84 | GCCCCACA | 0.0709 ± 0.076
85 | GCGGGTCC | 0.00421 ± 0.052
86 | GCTATTCC | -0.237 ± 0.058
87 | CGTCCTTA | -0.2949 ± 0.0015
88 | ATCTATAG | -0.0857 ± 0.049
89 | CTGATCCA | -0.238 ± 0.023
90 | ACATCAAG | -0.0049 ± 0.071
91 | CGCGCTCC | 0.0466 ± 0.14
92 | GAGTGCTA | 0.282 ± 0.0081
93 | AACTCCGG | -0.122 ± 0.0055
94 | AGTTTGTC | 0.137 ± 0.0077
95 | ATCGCTAC | 0.132 ± 0.018
96 | ACGGTATG | -0.119 ± 0.014
97 | AGTTACCG | 0.0306 ± 0.0028
98 | TGAACCAA | 0.0124 ± 0.00074
99 | AAATCAAA | -0.189 ± 0.055
100 | CATATTCG | 0.0585 ± 0.056

Row | Sequence | PBM E-score of 8-mer
101 | GCGTATAA | -0.0456 ± 0.03
102 | GTAGACAA | -0.0858 ± 0.00091
103 | CGGACGAA | -0.0131 ± 0.0016
104 | ACGGGCCC | -0.136 ± 0.035
105 | GGACTTGA | -0.12 ± 0.047
106 | ATTCTTGG | -0.188 ± 0.053
107 | ATTAAACC | -0.228 ± 0.053
108 | AGACCCCT | -0.232 ± 0.025
109 | ATCAATGA | -0.0875 ± 0.023
110 | GGCCCACC | -0.212 ± 0.045
111 | ACGTACTA | -0.0923 ± 0.0055
112 | CGATTCTC | 0.142 ± 0.0019
113 | GAGGGGAA | -0.0785 ± 0.031
114 | GACCCGCA | -0.125 ± 0.017
115 | CCTACTCC | -0.221 ± 0.015
116 | GCGCTCCA | -0.0637 ± 0.15
117 | ATCCTCCG | -0.145 ± 0.016
118 | GACAATAA | -0.00196 ± 0.046
119 | CTAGTAAC | -0.186 ± 0.021
120 | CGACACTC | 0.344 ± 0.007
121 | ATCGTCGC | 0.133 ± 0.065
122 | CAGCGCGG | 0.0687 ± 0.087
123 | CACCGGTG | 0.183 ± 0.027
124 | CGACGGAG | -0.171 ± 0.038
125 | ATTGATGG | -0.163 ± 0.037

Row | Sequence | PBM E-score of 8-mer
126 | CCTACGAA | -0.173 ± 0.063
127 | GAAGGTCA | -0.0314 ± 0.073
128 | CCGTTCAC | 0.367 ± 0.029
129 | ACCTCCTC | 0.169 ± 0.02
130 | CGCATCGC | 0.122 ± 0.026
131 | GAATCTCC | -0.14 ± 0.0052
132 | CCCTTCTC | -0.1496 ± 0.0013
133 | CTTGTGTA | -0.00671 ± 0.024
134 | CCGAAAGA | -0.141 ± 0.018
135 | GTTTTCGA | -0.0727 ± 0.051
136 | CACAAATC | 0.105 ± 0.012
137 | CATTGGTC | -0.00679 ± 0.01
138 | AACGAAAG | -0.173 ± 0.069
139 | GGGGTGGA | -0.00335 ± 0.03
140 | AAAGTTCC | -0.0533 ± 0.042
141 | GAGCCGGC | -0.165 ± 0.0071
142 | TCATGAAA | -0.154 ± 0.033
143 | AGTTTATG | -0.127 ± 0.027
144 | CACCTCTC | 0.421 ± 0.022
145 | CTAAGATA | 0.0445 ± 0.014
146 | CAGTTCGG | -0.105 ± 0.045
147 | ATGTGTCG | 0.385 ± 0.011
148 | CGTGAGCC | 0.0349 ± 0.039
149 | AGCAATAC | -0.12 ± 0.13
150 | ACTTTCCG | 0.0612 ± 0.0031

Row | Sequence | PBM E-score of 8-mer
151 | ATCAATTA | -0.00366 ± 0.054
152 | ACCTTGGG | 0.00347 ± 0.012
153 | AGGTGGCG | 0.401 ± 0.011
154 | TGTGTGAA | 0.4829 ± 0.004
155 | TCTACAAA | -0.107 ± 0.1
156 | AATGTAGT | -0.148 ± 0.016
157 | ACTTGAGA | 0.183 ± 0.083
158 | AATCTTAT | -0.122 ± 0.0085
159 | AACATGTA | -0.0332 ± 0.005
160 | AGAGGAAT | -0.168 ± 0.073
161 | CAGTTCTC | 0.143 ± 0.053
162 | GATGCGTA | -0.0483 ± 0.05
163 | CAAGCTTG | 0.102 ± 0.004
164 | ATGCCCTG | -0.171 ± 0.066
165 | CTATCTCA | 0.189 ± 0.03
166 | AGACTTTC | 0.00343 ± 0.055
167 | AAACCCCC | -0.176 ± 0.01
168 | ACATAATC | -0.0595 ± 0.056
169 | GAGTTCCC | -0.239 ± 0.0036
170 | AGAGTATA | -0.193 ± 0.037
171 | ATGAGCCG | -0.0664 ± 0.0058
172 | ACCTTCTG | 0.0938 ± 0.069
